The source gives no read counts; variants with many changes may rest on few reads.
B1: LINE1-mini (parent)
chain: GGCAGAGCUCAACACAGCGUGGCAAAGUGGCUGUGGCUAGACUGCC

Variants of: B1
Test: self-cleavage, relative activity (ratio to wild type); higher = more cleavage; in vitro, sequencing; the parent is a self-cleaving ribozyme

| Variant | self-cleavage |
| --- | --- |
| GGCAGAGCUCAACACAGCGUGGCCACGUGGCUGUGCCUAGACCGCC [A24C A26C G36C U43C] | 0.11 |
| GGCAGAGCUCAACACAGCGUGGUAAAGUGGCUGUGGUUACACUGCC [C23U C37U G40C] | 0.04 |
| GGCAGAGCUCAACACAGCGUGGCCAAGUGGCUGUGGUUAGAAUGCC [A24C C37U C42A] | 0.08 |
| GGCAGAGCUCAACACAGCGUGGUAAAGUGGCUCUGGCUAGACUGCG [C23U G33C C46G] | 0.06 |
| GGCAGAGCUCAACACAGCGUGGCGAAGUUGCUGUGGCUAGACUACC [A24G G29U G44A] | 0.52 |
| GGCAGAGCUCAACACAGCGUGGUAAAGUGGCUGUGGCGAGACGGCC [C23U U38G U43G] | 0 |
| GGCAGAGCUCAACACAGCGUGGUAAAGUGGCUGUGGCUAGAAUACC [C23U C42A G44A] | 0.15 |
| GGCAGAGCUCAACACAGCGUGGCCAACUACCUGUGGCUAGACUGCC [A24C G27C G29A G30C] | 1.1 |
| GGCAGAGCUCAACACAGCGUGGCGAAGUGGCUCCGGCUAGGCUGAC [A24G G33C U34C A41G C45A] | 0.04 |
| GGCAGAGCUCAACACAGCGUGGCGAAGAUGCUGUGACUAGACUGCC [A24G U28A G29U G36A] | 0.05 |
| GGCAGAGCUCAACACAGCGUGGCGAAGUGGCUGAGGCUUUACUGCC [A24G U34A A39U G40U] | 0.02 |
| GGCAGAGCUCAACACAGCGUGGUUAAUUGGCUGUGGCAAGACUGUC [C23U A24U G27U U38A C45U] | 0.77 |
| GGCAGAGCUCAACACAGCGUGGUAAAGUGGCUCUGGCUAGACUGAC [C23U G33C C45A] | 0.03 |
| GGCAGAGCUCAACACAGCGUGGCCAAGUGGCUGUGGCUAGCGUGAC [A24C A41C C42G C45A] | 0.09 |
| GGCAGAGCUCAACACAGCGUGGGAAAGUGGCUGUGUAUAGUCUGCC [C23G G36U C37A A41U] | 0.11 |
| GGCAGAGCUCAACACAGCGUGGUAAAGUGUCAAUGGCUAGACUGCC [C23U G30U U32A G33A] | 0.03 |
| GGCAGAGCUCAACACAGCGUGGCCAAGUGGCUUUAGCUAGACAGGC [A24C G33U G35A U43A C45G] | 0.06 |
| GGCAGAGCUCAACACAGCGUGGUAGAGUGGCUGUGGCUAUCCUGCC [C23U A25G G40U A41C] | 0.07 |
| GGCAGAGCUCAACACAGCGUGGUAAAGUGGCUCUGGCUAGAUUGCC [C23U G33C C42U] | 0.03 |

| Variant | self-cleavage |
| --- | --- |
| GGCAGAGCUCAACACAGCGUGGUAAAGUGGCUGUAGCUAAACCGCC [C23U G35A G40A U43C] | 0.03 |
| GGCAGAGCUCAACACAGCGUGGCGAAGUGGCUGCGGCCAGACUGCC [A24G U34C U38C] | 0.09 |
| GGCAGAGCUCAACACAGCGUGGCGAAGUGGCUGUGCCUAGACUCCC [A24G G36C G44C] | 0.1 |
| GGCAGAGCUCAACACAGCGUGGUAACGUGGCUAUGGCUAGACUGCG [C23U A26C G33A C46G] | 0.68 |
| GGCAGAGCUCAACACAGCGUGGUUAAGUGGCUGUUGCUAGACUGCC [C23U A24U G35U] | 0.06 |
| GGCAGAGCUCAACACAGCGUGGUAAAGUGGCGCCGGCUAGACUGCC [C23U U32G G33C U34C] | 0.15 |
| GGCAGAGCUCAACACAGCGUGGCUAAGUAGCUGUGUCUAGACUGCA [A24U G29A G36U C46A] | 0.01 |
| GGCAGAGCUCAACACAGCGUGGCGGAGUGCCUGUGGCUAGACUGUU [A24G A25G G30C C45U C46U] | 0.27 |
| GGCAGAGCUCAACACAGCGUGGCGAAGUGGUUGUGGCUAGACAGCC [A24G C31U U43A] | 0.07 |
| GGCAGAGCUCAACACAGCGUGGUAAAUUGGUUGUGGCUAGACUGCC [C23U G27U C31U] | 0.13 |
| GGCAGAGCUCAACACAGCGUGGCGAAGUGGCUCUGCCUAGACGGCC [A24G G33C G36C U43G] | 0.01 |
| GGCAGAGCUCAACACAGCGUGGUAAGGUGGCUAUGGCUAGACUGCC [C23U A26G G33A] | 0.08 |
| GGCAGAGCUCAACACAGCGUGGCCAAAUGGCAGUGGCUAGACUGCA [A24C G27A U32A C46A] | 0.03 |
| GGCAGAGCUCAACACAGCGUGGGAAAGUGGCUGGGGCUAGACUGGC [C23G U34G C45G] | 0.08 |
| GGCAGAGCUCAACACAGCGUGGUAAAGUGGCUGUCAUUAGACUGCC [C23U G35C G36A C37U] | 0.14 |
| GGCAGAGCUCAACACAGCGUGGUAAAGUGGUUGUGGCUAGGCUGCC [C23U C31U A41G] | 0 |
| GGCAGAGCUCAACACAGCGUGGUAUAGUGGCUGUGGAUAGAUUGCC [C23U A25U C37A C42U] | 0.07 |
| GGCAGAGCUCAACACAGCGUGGUCGAGUGGCUGUGGCUAGACUGCC [C23U A24C A25G] | 0.96 |
| GGCAGAGCUCAACACAGCGUGGUACAAUGGCUGUGGCAAGACUGCC [C23U A25C G27A U38A] | 0.53 |

| Variant | self-cleavage |
| --- | --- |
| GGCAGAGCUCAACACAGCGUGGCUGAGUGGCUGUGGCUAGACCGCC [A24U A25G U43C] | 0.03 |
| GGCAGAGCUCAACACAGCGUGGCGAAGUGGUUGUGGCUAGACUUCC [A24G C31U G44U] | 0 |
| GGCAGAGCUCAACACAGCGUGGCCAAGUGCCUGUGGCUAGAAUGCC [A24C G30C C42A] | 0.02 |
| GGCAGAGCUCAACACAGCGUGGUGAAGUGGCUGCCGCCAGACUGCC [C23U A24G U34C G35C U38C] | 0 |
| GGCAGAGCUCAACACAGCGUGGCGAAGUGUCUUUGGCGCGACUGCC [A24G G30U G33U U38G A39C] | 0.12 |
| GGCAGAGCUCAACACAGCGUGGCGCAGUGGCUGUGGCUAAACUGCC [A24G A25C G40A] | 0.03 |
| GGCAGAGCUCAACACAGCGUGGCGAACUGCCUGUGACUAGACUGCC [A24G G27C G30C G36A] | 0.06 |
| GGCAGAGCUCAACACAGCGUGGUAAAGGGGUUGUGGCGAUACUGCC [C23U U28G C31U U38G G40U] | 0.03 |
| GGCAGAGCUCAACACAGCGUGGCUACGUGGCUGUGGCAAGACUGCC [A24U A26C U38A] | 0.14 |
| GGCAGAGCUCAACACAGCGUGGUAAAGUGGCUGUGGCCAGAUUUCC [C23U U38C C42U G44U] | 0.01 |
| GGCAGAGCUCAACACAGCGUGGCUGAGUGGCUGUGGCUAGGCUUCC [A24U A25G A41G G44U] | 0.07 |
| GGCAGAGCUCAACACAGCGUGGUAAAUUGGCUGUGGCUAGGCUGCC [C23U G27U A41G] | 0.12 |
| GGCAGAGCUCAACACAGCGUGGCGAAGUUCCUGUGGCUUGACUGCC [A24G G29U G30C A39U] | 0.03 |
| GGCAGAGCUCAACACAGCGUGGCGAUGUUGCUGUGGCUAGACUGCC [A24G A26U G29U] | 0.45 |
| GGCAGAGCUCAACACAGCGUGGUAAAGUGGCUGUAGCUAGACUACC [C23U G35A G44A] | 0.07 |
| GGCAGAGCUCAACACAGCGUGGCCAAGUGGCUGUGGCAAGACGGCC [A24C U38A U43G] | 0 |
| GGCAGAGCUCAACACAGCGUGGUAAAGAGGCUGUCGCUAGACUGCC [C23U U28A G35C] | 0.15 |
| GGCAGAGCUCAACACAGCGUGGCGAAGUGGCUGUGGCUAGACUUUC [A24G G44U C45U] | 0.17 |

From the RNAGym collection of RNA variant scans (doi:10.7554/elife.90254)
